# The campaign covered roughly 39,000 compounds. About 220 (0.56%) showed activity. Some of the results follow.
# Test system: Escherichia coli K-12 BW25113
# Test: relative growth (OD600 normalised to plate interquartile mean) (fraction); higher = less growth inhibition, active = 0.2 or less
# Conditions: 50 µM; LB; incubation time: overnight (16-24 h)
# 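Also: static incubation at 37 °C against the wild-type strain, values averaged over two biological replicates.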
row,SMILES,relative growth
1,C[C@@H]1CN([C@@H](C)CO)C(=O)c2cc(-c3ccncc3)cnc2O[C@H]1CN(C)Cc1ccc(Oc2ccccc2)cc1,inactive: 0.997
2,COC(=O)C(CC#Cc1ccc2c(c1)[C@]1(C(=O)N2)[C@H](c2ccc(OCCO)cc2)N2[C@H](c3ccccc3)[C@H](c3ccccc3)OC(=O)[C@H]2[C@@H]1C(=O)Nc1nc2ccccc2s1)C(=O)OC,inactive: 1
3,Oc1ccc(C2Oc3cc(O)cc(O)c3CC2O)cc1 (centres undefined),inactive: 1.04
4,C[C@H](CO)N1C[C@H](C)[C@H](CN(C)CC2CCCCC2)Oc2c(NC(=O)Nc3ccc(F)cc3)cccc2C1=O,inactive: 0.961
5,Cc1noc(C)c1NC(=O)N(C)C[C@@H]1OCCCC[C@H](C)Oc2ccc(NS(=O)(=O)c3cccs3)cc2C(=O)N([C@@H](C)CO)C[C@H]1C,inactive: 1.01
6,Clc1ccc(Cn2cccc2)cn1,inactive: 0.992
7,CCC(=O)NCCC1CCc2ccc3c(c21)CCO3 (centres undefined),inactive: 1.09
8,C[C@H]1CCCCO[C@H](CN(C)C(=O)Cc2ccccc2)[C@@H](C)CN([C@@H](C)CO)C(=O)c2cc(NC(=O)Nc3ccc(F)cc3)ccc2O1,inactive: 1.04
9,CC(=O)Nc1ccc(C(=O)O)cc1,inactive: 1.02
10,COc1ccccc1-c1ccc2c(c1)O[C@H](CN(C)C(=O)c1cccnc1)[C@@H](C)CN([C@@H](C)CO)S2(=O)=O,inactive: 0.915
11,C[C@H]1CN([C@@H](C)CO)C(=O)c2cccc(NS(=O)(=O)c3ccc(Cl)cc3)c2O[C@H]1CN(C)C(=O)Nc1ccc(C(F)(F)F)cc1,inactive: 1.01
12,C[C@@H]1CCCCO[C@H](CN(C)Cc2ccccc2)[C@@H](C)CN([C@H](C)CO)C(=O)c2cc(NC(=O)Cc3ccccc3)ccc2O1,inactive: 1.03
13,N[C@H](CCC(=O)NCC(=O)O)C(=O)O,inactive: 1.02
14,C[C@@H]1CCCCO[C@H](CN(C)Cc2ccc(C(F)(F)F)cc2)[C@H](C)CN([C@@H](C)CO)C(=O)c2cc(NC(=O)Nc3ccc(F)cc3)ccc2O1,inactive: 1.04
15,C[C@@H]1CCCCO[C@H](CN(C)S(=O)(=O)c2ccc(F)cc2)[C@H](C)CN([C@H](C)CO)C(=O)c2cc(NC(=O)NC3CCCCC3)ccc2O1,inactive: 1
16,C[C@@H](CO)N1C(=O)[C@@H]2[C@H]3C(=O)OCCC=C[C@H]3O[C@]23C=CCN(CCN2CCOCC2)C(=O)[C@@H]13,inactive: 0.989
17,C[C@H](CO)N1C[C@H](C)[C@H](CN(C)C(=O)Nc2ccc3c(c2)OCO3)Oc2ncc(C#CC(C)(C)O)cc2C1=O,inactive: 0.983
18,CCCNS(=O)(=O)c1c[nH]c(C(=O)OC)c1,inactive: 1.03
19,COc1ccccc1-c1ccc2c(c1)O[C@H](CN(C)C(=O)c1ccncc1)[C@@H](C)CN([C@H](C)CO)S2(=O)=O,inactive: 1.01
20,C[C@H]1CCCCO[C@H](CN(C)Cc2ccc(C(F)(F)F)cc2)[C@@H](C)CN([C@@H](C)CO)C(=O)c2cc(NC(=O)CCCN(C)C)ccc2O1,inactive: 0.982

row,SMILES,relative growth
1,O=C1c2ccccc2[C@@]2(Cc3ccccc3N(CCN3CCOCC3)C2=O)[C@H](c2ccc(CO)cc2)N1Cc1ccccc1Cl,inactive: 0.994
2,CCOC(=O)CCCCCC(=O)Nc1ccc2c(c1)C(=O)N([C@@H](C)CO)C[C@@H](C)[C@H](CN(C)C(=O)Nc1ccccc1)OCCCC[C@H](C)O2,inactive: 1.04
3,C[C@H]1CN([C@@H](C)CO)C(=O)c2cc(NC(=O)Nc3ccc(C(F)(F)F)cc3)ccc2O[C@H]1CN(C)Cc1ccc(C(=O)Nc2ccccc2N)cc1,inactive: 1.02
4,C[C@H](CO)N1C[C@H](C)[C@H](CN(C)C(=O)Nc2ccc(C(F)(F)F)cc2)Oc2ccc(NC(=O)C3CCCCC3)cc2C1=O,inactive: 0.983
5,C[C@@H]1CN([C@@H](C)CO)C(=O)c2cc(NC(=O)Nc3ccc(F)cc3)ccc2O[C@@H]1CN(C)CC1CCCCC1,inactive: 0.989
6,CC(C)NC(=O)N(C)C[C@H]1Oc2c(NC(=O)Nc3ccc4c(c3)OCO4)cccc2C(=O)N([C@H](C)CO)C[C@H]1C,inactive: 0.98
7,C[C@@H]1CCCCO[C@H](CN(C)Cc2ccncc2)[C@H](C)CN([C@@H](C)CO)C(=O)c2cc(NC(=O)Nc3cccc4ccccc34)ccc2O1,inactive: 0.957
8,Cc1noc(C)c1NC(=O)Nc1ccc2c(c1)C(=O)N([C@@H](C)CO)C[C@H](C)[C@H](CN(C)Cc1ccccc1)OCCCC[C@H](C)O2,inactive: 1.01
9,O=c1c2ccccc2oc2ccc(O)cc12,inactive: 1.11
10,Cc1noc(C)c1NC(=O)Nc1ccc2c(c1)C(=O)N([C@@H](C)CO)C[C@H](C)[C@@H](CN(C)C(=O)NC1CCCCC1)OCCCC[C@H](C)O2,inactive: 1.01
11,O=C(N[C@H]1CC[C@@H](CCn2cc(C3(O)CCCC3)nn2)O[C@@H]1CO)C1CCOCC1,inactive: 0.878
12,C[C@@H]1CCCCO[C@@H](CN(C)Cc2ccc(C(=O)Nc3ccccc3N)cc2)[C@@H](C)CN([C@H](C)CO)C(=O)c2cc(NC(=O)C3CCCCC3)ccc2O1,inactive: 0.943
13,CC(C)(O)[C@@H](O)Cc1cc(O)ccc1O[C@H]1O[C@@H](CO)[C@@H](O)[C@@H](O)[C@@H]1O,inactive: 0.993
14,O=c1cc(-c2ccc(O)cc2)oc2cc(O)ccc12,inactive: 1.09
15,C[C@@H]1CCCCO[C@H](CN(C)Cc2ccc3c(c2)OCO3)[C@H](C)CN([C@H](C)CO)C(=O)c2cc(NC(=O)Nc3ccc(F)cc3)ccc2O1,inactive: 1.03
16,O=C(CCCCCCC(=O)Nc1ccc([C@H]2O[C@@H](CSc3nc(-c4ccccc4)c(-c4ccccc4)o3)C[C@H](c3ccccc3)O2)cc1)NO,inactive: 0.985
17,CC(C)NC(=O)Nc1ccc2c(c1)C(=O)N([C@H](C)CO)C[C@H](C)[C@H](CN(C)S(C)(=O)=O)OCCCC[C@@H](C)O2,inactive: 0.996
18,Cc1ccc(S(=O)(=O)N(C)C[C@H]2Oc3ncc(Br)cc3C(=O)N([C@H](C)CO)C[C@@H]2C)cc1,inactive: 1.01
19,COc1ccc(CN(C)C[C@@H]2OCCCC[C@H](C)Oc3ccc(NC(=O)Nc4c(C)noc4C)cc3C(=O)N([C@H](C)CO)C[C@H]2C)cc1,inactive: 1.01
20,C[C@H]1CN([C@@H](C)CO)C(=O)c2cc(NC(=O)C3CC3)ccc2O[C@H]1CN(C)S(=O)(=O)c1ccc(Cl)cc1,inactive: 0.997

row,SMILES,relative growth
1,C[C@H]1CN([C@@H](C)CO)C(=O)c2cc(C#CC3(O)CCCC3)cnc2O[C@H]1CN(C)C(=O)Cc1ccncc1,inactive: 1.03
2,COc1ccc(S(=O)(=O)Nc2ccc3c(c2)C(=O)N([C@@H](C)CO)C[C@H](C)[C@H](CN(C)S(=O)(=O)c2cn(C)cn2)OCCCC[C@@H](C)O3)cc1,inactive: 0.997
3,C[C@H](CO)N1C[C@H](C)[C@@H](CN(C)C(=O)C2CCC2)Oc2cc(-c3ccc(C(=O)N(C)C)cc3)ccc2S1(=O)=O,inactive: 1.02
4,COc1cc(C(=O)NS(=O)(=O)c2ccccc2C)ccc1Cc1cn(C)c2ccc(NC(=O)OC3CCCC3)cc12,inactive: 1.01
5,O=C(C[C@H]1CC[C@H]2[C@@H](COC[C@H](O)CN2C(=O)c2ccncc2)O1)NC1CCC1,inactive: 0.972
6,COc1ccc(NC(=O)N(C)C[C@H]2Oc3ccc(NC(=O)CCCCCC(=O)Nc4ccccc4N)cc3C(=O)N([C@@H](C)CO)C[C@H]2C)cc1,inactive: 1.01
7,C[C@H](CO)N1C[C@H](C)[C@H](CN(C)S(=O)(=O)c2ccccc2)Oc2ncc(C#Cc3ccccc3)cc2C1=O,inactive: 1.03
8,O=C(C[C@H]1CC[C@H]2[C@@H](COC[C@@H](O)CN2C(=O)c2ccncc2)O1)NC1CCC1,inactive: 1.01
9,CN1CCN(C(=O)CC#N)CC1,inactive: 0.925
10,C[C@@H]1CCCCO[C@@H](CN(C)S(=O)(=O)c2ccc(F)cc2)[C@@H](C)CN([C@H](C)CO)C(=O)c2cc(NC(=O)Nc3ccc4c(c3)OCO4)ccc2O1,inactive: 0.975
11,CCOC(=O)c1c(CN2CCN(Cc3ccccc3)CC2)n(-c2ccccc2)c2cc(Br)c(O)cc12,inactive: 1.01
12,C[C@H](CO)N1C[C@H](C)[C@@H](CN(C)C(=O)c2ccccn2)Oc2cc(C#Cc3ccc(F)cc3)ccc2S1(=O)=O,inactive: 1.03
13,CCC(=O)N[C@H]1CC[C@@H](CC(=O)OC)O[C@@H]1CO,inactive: 0.935
14,C[C@@H]1CCCCO[C@H](CN(C)C(=O)NC2CCCCC2)[C@@H](C)CN([C@H](C)CO)C(=O)c2cc(NC(=O)C3CCCCC3)ccc2O1,inactive: 1.03
15,Cc1c(C)c2c(c(C)c1OC(=O)CCC(=O)OCCO)CC[C@@](C)(CCC[C@H](C)CCC[C@H](C)CCCC(C)C)O2,inactive: 0.921
16,C[C@@H]1CCCCO[C@H](CN(C)S(=O)(=O)c2ccc(Cl)cc2)[C@@H](C)CN([C@H](C)CO)C(=O)c2cc(NC(=O)c3ccccc3)ccc2O1,inactive: 1.01
17,C=CCOC(=O)[C@H]1[C@@H]2C(=O)O[C@@H](c3ccccc3)[C@@H](c3ccccc3)N2[C@@H](c2ccc(OCCOC(=O)[C@@H]3C[C@@H]4C(=O)NCC(=O)N4[C@@H]3c3cccc(OCCO)c3)cc2)[C@]12C(=O)Nc1ccc(I)cc12,inactive: 1.06
18,C[C@@H]1CN([C@H](C)CO)C(=O)Cc2cc(NS(=O)(=O)c3ccc(F)cc3)ccc2O[C@@H]1CN(C)S(=O)(=O)c1cn(C)cn1,inactive: 1
19,COc1ccc2c3c([nH]c2c1)[C@H](CO)N(C[C@]13CN(C)C1)C(=O)CN1CCOCC1,inactive: 1.04
